According to the supplement of paper PMC11125491:
± gives the standard deviation of the averaged measurements. Growth of baker's yeast expressing single-residue variants of Pneumocystis jirovecii dihydrofolate reductase in 8.8 or 44 µM methotrexate (about 75% and 90% inhibition of the wild type). Selection coefficient per generation; 0 = like wild type, above 0 = less sensitive, below 0 = more sensitive or loss of function. No active / inactive call per row; the paper calls resistant above 0.220 (8.8 µM) or 0.243 (44 µM) together with a significance test. At 44 µM about 15% of codons end with one read or none, so the lowest values are floors (replicate rank correlation 0.74; 0.94 at 8.8 µM).

B1: UniProt A0EPZ9; numbered along this chain (parent)
chain: MDWQKSLTLIVALTLSRGIGLKNDLPWKLKSDMMFFSRVTSGLLVTRSTGQMNVVLMGRKTWESLPAHSRPLKNRINVVISRQEVLDLGGGAYHARSLDDALALLSQIYDSTSKIQLNRVFVIGGGELCKAAMEHSRLNRIIATVIHNEVDCDVFFPIDFRSSQSCLPWRKQDHSVLEAWVGSKVPQGKINENGFIYEFEMWIRDI

Variants of: B1
Assay: selection coefficient against synonymous wild-type codons (log2 per generation); higher = faster growth than wild type
Settings: with Saccharomyces cerevisiae carrying the variant on a plasmid
Protocol: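 Pooled growth of yeast carrying single-residue variants of P. jirovecii dihydrofolate reductase (own DFR1 gene intact), two passages at 30 °C, three cultures, sequenced before and after. Codons with under 15 starting reads are left out; codons of one change are averaged.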

| Variant | selection coefficient against synonymous wild-type codons (log2) (methotrexate 8.8 µM) | selection coefficient against synonymous wild-type codons (log2) (methotrexate 44 µM) |
| --- | --- | --- |
| L117C | -0.128 ± 0.048 | -0.147 ± 0.14 |
| L117D | 0.0324 ± 0.046 | 0.0937 ± 0.012 |
| L117E | -0.111 ± 0.063 | -0.165 ± 0.037 |
| L117F | -0.00194 ± 0.037 | 0.0779 ± 0.14 |
| L117G | -0.16 ± 0.016 | -0.149 ± 0.12 |
| L117I | 0.166 ± 0.047 | 0.219 ± 0.047 |
| L117K | -0.277 ± 0.047 | -0.181 ± 0.071 |
| L117M | -0.149 ± 0.011 | -0.261 ± 0.15 |
| L117N | -0.146 ± 0.045 | -0.106 ± 0.055 |
| L117P | 0.0863 ± 0.013 | 0.104 ± 0.097 |
| L117Q | -0.284 ± 0.054 | -0.213 ± 0.066 |
| L117R | -0.35 ± 0.093 | -0.232 ± 0.11 |
| L117S | -0.137 ± 0.054 | -0.0917 ± 0.073 |
| L117T | -0.122 ± 0.0098 | -0.0437 ± 0.084 |
| L117V | 0.00983 ± 0.021 | 0.025 ± 0.056 |
| L117W | -0.0677 ± 0.035 | 0.27 ± 0.36 |
| L117Y | -0.232 ± 0.023 | -0.117 ± 0.058 |
| N118A | -0.113 ± 0.035 | -0.101 ± 0.1 |
| N118C | -0.0546 ± 0.061 | 0.0302 ± 0.11 |
| N118D | 0.0563 ± 0.044 | 0.0675 ± 0.023 |
| N118E | -0.0648 ± 0.033 | -0.0995 ± 0.19 |
| N118F | -0.127 ± 0.029 | -0.131 ± 0.067 |
| N118G | 0.269 ± 0.03 | 0.378 ± 0.043 |
| N118H | -0.145 ± 0.21 | -0.142 ± 0.052 |

| Variant | selection coefficient against synonymous wild-type codons (log2) (methotrexate 8.8 µM) | selection coefficient against synonymous wild-type codons (log2) (methotrexate 44 µM) |
| --- | --- | --- |
| N118I | -0.185 ± 0.079 | -0.146 ± 0.18 |
| N118K | -0.155 ± 0.046 | -0.192 ± 0.21 |
| N118L | -0.125 ± 0.044 | -0.145 ± 0.14 |
| N118M | 0.0884 ± 0.014 | 0.162 ± 0.043 |
| N118P | 0.177 ± 0.042 | 0.256 ± 0.045 |
| N118Q | -0.137 ± 0.049 | -0.0636 ± 0.026 |
| N118R | -0.25 ± 0.043 | -0.219 ± 0.082 |
| N118S | -0.0621 ± 0.024 | -0.00773 ± 0.27 |
| N118T | -0.0946 ± 0.046 | -0.0582 ± 0.15 |
| N118V | -0.153 ± 0.037 | -0.234 ± 0.16 |
| N118W | -0.142 ± 0.034 | -0.153 ± 0.079 |
| N118Y | -0.19 ± 0.12 | -0.127 ± 0.087 |
| R119A | -0.0226 ± 0.029 | 0.0439 ± 0.11 |
| R119C | -0.0832 ± 0.048 | 0.0548 ± 0.17 |
| R119D | 0.103 ± 0.031 | 0.169 ± 0.076 |
| R119E | 0.188 ± 0.042 | 0.21 ± 0.08 |
| R119F | -0.234 ± 0.05 | -0.157 ± 0.12 |
| R119G | 0.0529 ± 0.024 | 0.106 ± 0.07 |
| R119H | 0.137 ± 0.0067 | 0.234 ± 0.13 |
| R119I | -0.514 ± 0.071 | -0.268 ± 0.047 |
| R119K | 0.0888 ± 0.042 | 0.154 ± 0.13 |
| R119L | -0.381 ± 0.11 | -0.34 ± 0.1 |
| R119M | -0.112 ± 0.0077 | -0.207 ± 0.11 |
| R119N | 0.236 ± 0.013 | 0.332 ± 0.073 |

| Variant | selection coefficient against synonymous wild-type codons (log2) (methotrexate 8.8 µM) | selection coefficient against synonymous wild-type codons (log2) (methotrexate 44 µM) |
| --- | --- | --- |
| R119P | -0.222 ± 0.023 | -0.0173 ± 0.16 |
| R119Q | 0.136 ± 0.04 | 0.134 ± 0.039 |
| R119S | 0.123 ± 0.018 | 0.174 ± 0.073 |
| R119T | 0.0864 ± 0.028 | 0.0369 ± 0.041 |
| R119V | -0.414 ± 0.084 | -0.304 ± 0.072 |
| R119W | -0.327 ± 0.05 | -0.226 ± 0.1 |
| R119Y | -0.0121 ± 0.0059 | 0.12 ± 0.14 |
| V120A | -0.368 ± 0.11 | -0.185 ± 0.11 |
| V120C | -0.262 ± 0.053 | -0.218 ± 0.14 |
| V120D | -0.259 ± 0.056 | -0.0631 ± 0.098 |
| V120E | -0.777 ± 0.035 | -0.273 ± 0.047 |
| V120F | -0.347 ± 0.16 | -0.15 ± 0.035 |
| V120G | -0.531 ± 0.098 | -0.0988 ± 0.34 |
| V120H | -0.739 ± 0.023 | -0.235 ± 0.063 |
| V120I | 0.0319 ± 0.041 | 0.13 ± 0.026 |
| V120K | -0.844 ± 0.016 | -0.339 ± 0.065 |
| V120L | -0.132 ± 0.036 | -0.155 ± 0.13 |
| V120M | -0.168 ± 0.015 | -0.17 ± 0.14 |
| V120N | -0.695 ± 0.045 | -0.192 ± 0.031 |
| V120P | -0.697 ± 0.027 | -0.193 ± 0.057 |
| V120Q | -0.801 ± 0.032 | -0.297 ± 0.043 |
| V120R | -0.697 ± 0.1 | -0.254 ± 0.05 |
| V120S | -0.715 ± 0.1 | -0.264 ± 0.089 |
| V120T | -0.538 ± 0.05 | -0.296 ± 0.027 |

| Variant | selection coefficient against synonymous wild-type codons (log2) (methotrexate 8.8 µM) | selection coefficient against synonymous wild-type codons (log2) (methotrexate 44 µM) |
| --- | --- | --- |
| V120W | -0.677 ± 0.039 | -0.329 ± 0.14 |
| V120Y | -0.5 ± 0.12 | -0.255 ± 0.04 |
| F121A | -0.177 ± 0.028 | -0.13 ± 0.086 |
| F121C | -0.0278 ± 0.038 | -0.0722 ± 0.071 |
| F121D | -0.814 ± 0.035 | -0.309 ± 0.041 |
| F121E | -0.719 ± 0.18 | -0.369 ± 0.06 |
| F121G | -0.629 ± 0.097 | -0.251 ± 0.044 |
| F121H | -0.347 ± 0.086 | -0.177 ± 0.048 |
| F121I | -0.219 ± 0.07 | -0.147 ± 0.049 |
| F121K | -0.567 ± 0.24 | -0.322 ± 0.052 |
| F121L | -0.0558 ± 0.025 | -0.0648 ± 0.13 |
| F121M | -0.116 ± 0.02 | -0.121 ± 0.11 |
| F121N | -0.581 ± 0.083 | -0.0791 ± 0.041 |
| F121P | -0.59 ± 0.13 | -0.21 ± 0.05 |
| F121Q | -0.49 ± 0.068 | -0.289 ± 0.056 |
| F121R | -0.682 ± 0.071 | -0.202 ± 0.059 |
| F121S | -0.383 ± 0.067 | -0.251 ± 0.14 |
| F121T | -0.28 ± 0.046 | -0.201 ± 0.066 |
| F121V | -0.0487 ± 0.019 | -0.0641 ± 0.099 |
| F121W | -0.23 ± 0.057 | -0.361 ± 0.1 |
| F121Y | -0.06 ± 0.012 | 0.0515 ± 0.13 |
| V122A | -0.528 ± 0.15 | -0.155 ± 0.1 |
| V122C | -0.337 ± 0.067 | -0.148 ± 0.11 |
| V122D | -0.276 ± 0.23 | 0.0173 ± 0.1 |

| Variant | selection coefficient against synonymous wild-type codons (log2) (methotrexate 8.8 µM) | selection coefficient against synonymous wild-type codons (log2) (methotrexate 44 µM) |
| --- | --- | --- |
| V122E | -0.665 ± 0.023 | -0.162 ± 0.055 |
| V122F | -0.359 ± 0.041 | -0.168 ± 0.021 |
| V122G | -0.769 ± 0.098 | -0.299 ± 0.038 |
| V122H | -0.549 ± 0.094 | -0.0906 ± 0.026 |
| V122I | 0.00773 ± 0.017 | 0.119 ± 0.14 |
| V122K | -0.773 ± 0.023 | -0.313 ± 0.005 |
| V122L | -0.0651 ± 0.044 | -0.0258 ± 0.089 |
| V122M | -0.272 ± 0.092 | -0.0738 ± 0.11 |
| V122N | -0.721 ± 0.14 | -0.285 ± 0.046 |
| V122P | -0.692 ± 0.14 | -0.245 ± 0.048 |
| V122Q | -0.694 ± 0.12 | -0.335 ± 0.078 |
| V122R | -0.671 ± 0.1 | -0.168 ± 0.1 |
| V122S | -0.714 ± 0.059 | -0.24 ± 0.058 |
| V122T | -0.679 ± 0.14 | -0.3 ± 0.064 |
| V122W | -0.671 ± 0.15 | -0.342 ± 0.05 |
| V122Y | -0.627 ± 0.065 | -0.329 ± 0.14 |
| I123A | 0.144 ± 0.027 | 0.267 ± 0.081 |
| I123C | 0.294 ± 0.0085 | 0.493 ± 0.065 |
| I123D | -0.853 ± 0.033 | -0.348 ± 0.045 |
| I123E | -0.494 ± 0.14 | -0.242 ± 0.075 |
